About 6,900 (2%) of roughly 340,000 compounds were called active. Cut-off read from the data, not from the text of the source: active = inhibition above about 30%; inactive = below that, where a call was filed. The entries are a selection whose mix differs from that of the whole data set. Where no call is shown, the source filed none. Some structures have more than one record in an assay (separate samples or runs), and their calls can disagree.
Each compound was assayed against D(2) dopamine receptor (Homo sapiens) (UniProt P14416) (assay: HTS Assay for Allosteric Antagonists of the Human D2 Dopamine Receptor: Primary Screen for Antagonists). Conditions: HEK293 TREx D2 cells, calcium flux, dopamine EC80; at 10 µM; stronger effect = higher value.
Chain of UniProt P14416 (P14416 whole entry, looked up): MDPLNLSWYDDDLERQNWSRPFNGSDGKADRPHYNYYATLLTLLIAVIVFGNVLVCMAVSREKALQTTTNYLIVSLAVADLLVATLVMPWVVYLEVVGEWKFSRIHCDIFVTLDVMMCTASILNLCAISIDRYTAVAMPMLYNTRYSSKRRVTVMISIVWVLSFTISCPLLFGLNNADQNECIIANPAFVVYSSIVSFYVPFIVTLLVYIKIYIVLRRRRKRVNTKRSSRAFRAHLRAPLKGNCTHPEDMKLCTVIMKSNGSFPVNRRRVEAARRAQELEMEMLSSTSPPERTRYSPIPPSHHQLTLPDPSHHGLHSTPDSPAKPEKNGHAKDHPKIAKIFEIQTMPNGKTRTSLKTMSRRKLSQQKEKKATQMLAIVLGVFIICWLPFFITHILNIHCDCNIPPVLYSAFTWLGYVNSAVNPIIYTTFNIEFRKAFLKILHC
Procedure, shortened: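 Measurement of antagonist activity uses fluorescent calcium dye in inducible HEK293 T-REx D2 cells: 10 s baseline, compound addition with 180 s read, EC80 dopamine addition with a further 180 s read.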
With `O=C(NCc1ccc(F)cc1)c1cc2cccc3c2n1CCS3` the inhibition was -3.68%.
Compound `CC(=O)c1cccc(NC(=O)Cc2ccc(NC(=O)N3CCCCc4ccccc43)cc2)c1` has an inhibition of 2.17%.
Compound `COc1ccc(S(=O)(=O)N(CC(=O)NCCSc2ccccc2)c2ccc(C)cc2)cc1` has an inhibition of 3.87%.
In the case of `COc1ccccc1N1CCN(Cc2nc(N)nc(Nc3ccc(C)cc3)n2)CC1`, the inhibition is reported as active: 89.2%.
`CCOC(=O)c1cc(-c2ccccc2)n(CCC(=O)NCCc2cccc(C)c2)c1C` gave an inhibition of -9.37%.
With `COC(=O)c1ccc(NC(=O)C(=O)NCC(c2cccnc2)N2CCN(c3ccccc3)CC2)cc1` (stereo unspecified) the inhibition was -4.04%.
Work on `CCCCNc1oc(-c2ccc(COc3ccccc3C)o2)nc1C#N` yielded an inhibition of 8.84%.
Work on `COCCNc1nc2c(c(=O)n(Cc3cccc(Cl)c3)c(=O)n2C)n1C` yielded an inhibition of -5.38%.
`Cc1ccc(NC(=O)C2CCC(CNS(=O)(=O)c3ccc4c(c3)CCCC(=O)N4)CC2)cc1F` (stereo unspecified) gave an inhibition of -1.89%.
Work on `COc1ccc2c(c1)c1c(c(=O)n(Cc3ccccc3)c(=O)n1Cc1ccccc1Cl)n2C` yielded an inhibition of -2.81%.
`CCc1ccc(NC(=O)C2=C(C)C(=O)OC23CCCCC3)cc1` showed an inhibition of 12.3%.
`COc1ccc(OCC(=O)Nc2c(C(=O)N3CCN(c4ccccc4)CC3)oc3ccccc23)cc1` gave an inhibition of 4.63%.
For `O=C(CSc1nnc(-c2cccc(F)c2)o1)N1CCCC1`, the inhibition was active: 32.2%.
`COc1ccc(N2CCN(C(=O)COc3ccccc3C#N)CC2)cc1` showed an inhibition of 10.5%.
With `Cc1ccc(Cl)cc1N1CCN(S(=O)(=O)c2c(C(=O)N3CCOCC3)c(C)n(C)c2C)CC1` the inhibition was active: 37.6%.
In the case of `Cc1ccc(C)c(NC(=O)C(Cc2ccccc2)n2cccc2)c1` (stereo unspecified), the inhibition is reported as 0.693%.
`COc1ccc(OC)c(NC(=O)Cn2c(=O)n(Cc3ccco3)c(=O)c3cc(OC)c(OC)cc32)c1` showed an inhibition of -8.39%.
With `Brc1ccc(Nc2c3c(nc4nncn24)CCC3)cc1` the inhibition was -6.14%.
Compound `Cc1ccc(C(=O)Nc2ccc(-c3nc4ccccc4o3)cc2)cc1Cl` has an inhibition of 6.54%.
`COc1ccccc1CNC(=O)CCCCn1c(=O)c2ccccc2n(CC(=O)Nc2c(C)cc(C)cc2C)c1=O` showed an inhibition of -2.73%.
In the case of `COc1ccccc1N1CCN(C2CCN(S(=O)(=O)c3ccc(NC(C)=O)cc3)CC2)CC1`, the inhibition is reported as active: 31.7%.
Compound `COc1ccccc1Cc1nc2ccccc2nc1SCC(=O)Nc1ccc2c(c1)OCO2` has an inhibition of -10.2%.
`CCOc1ccccc1CNC(=O)CCC(=O)N1CCSc2ccccc21` showed an inhibition of 15.2%.
`CCCN(CCC)C(=O)CSc1c2c(nc3ccc(Cl)cc13)CCCC2` was tested, and the inhibition was 10.3%.
`O=[N+]([O-])c1cc(-c2nc(-c3ccccc3)no2)ccc1NCc1cccnc1` showed an inhibition of -21.4%.
Work on `CCOc1ccc(-n2ccnc2SCC(=O)Nc2cccc3ccccc23)cc1` yielded an inhibition of -2.28%.
With `Cc1cccc(CC(=O)N2CC(=O)Nc3ccc(C)cc3C2c2ccc(F)cc2)c1` (stereo unspecified) the inhibition was 11.6%.
In the case of `N=c1c(S(=O)(=O)c2ccccc2)cc2c(=O)n3ccccc3nc2n1Cc1cccnc1`, the inhibition is reported as active: 44.4%.
In the case of `COc1cc(NC(=O)CCn2c(=O)oc3ccccc32)cc(OC)c1OC`, the inhibition is reported as -5.73%.
For `COC(=O)CC1Oc2ccc(F)cc2-n2cc(-c3ccc(C)cc3)nc21` (stereo unspecified), the inhibition was 16.7%.
Work on `CCOC(=O)N1CCc2c(sc(NCc3cccc(F)c3)c2C(=O)Nc2ccc(OC)cc2)C1` yielded an inhibition of 11.9%.
With `Cc1ccc(CNc2nc3ccc(Cl)cc3n3nnnc23)cc1` the inhibition was -1.39%.
`COc1ccc(-n2cc(-c3ccccc3)nc2SCC(=O)Nc2ccccc2C)cc1` showed an inhibition of -0.789%.
With `Cc1cc(-c2ccc(C)c(S(=O)(=O)Nc3ccccn3)c2)on1` the inhibition was -4.13%.
For `COc1cc(OC)c(NS(=O)(=O)c2c(C(=O)N3CCCCCC3)c(C)n(C)c2C)cc1Cl`, the inhibition was -20.7%.
With `COc1ccc(N(Cc2cccs2)C(=O)COc2cccc(C)c2C)cc1` the inhibition was 2.32%.
`CSc1ccc(NC(=O)C2CCN(c3ncccn3)CC2)cc1` showed an inhibition of -20.9%.
For `Cc1ccc(S(=O)(=O)c2nc(-c3cccs3)oc2SCC(=O)Nc2cc(C)cc(C)c2)cc1`, the inhibition was -13.1%.
`COc1ccccc1OCC(=O)N(Cc1cccs1)C1CCS(=O)(=O)C1` (stereo unspecified) showed an inhibition of 14.2%.
`CCOC(=O)Cn1nc(C)c(NC(=O)COc2ccccc2)c1C` was tested, and the inhibition was -2.61%.
`Cc1cccc(Cn2c(=O)n(CCCC(=O)NCc3ccccc3Cl)c(=O)c3ccccc32)c1` showed an inhibition of -11%.
With `COc1ccccc1CNc1nc(-c2ccco2)nn1S(C)(=O)=O` the inhibition was -21.2%.
In the case of `COc1ccc(S(=O)(=O)NC(C)(C)C)cc1-c1nnc2c3ccccc3c(C)nn12`, the inhibition is reported as 16.1%.
`COc1ccc(N2C(=O)CSC23C(=O)N(Cc2cccc(C(F)(F)F)c2)c2ccccc23)cc1` (stereo unspecified) showed an inhibition of 5.48%.
For `Cc1ccc(Nc2c3c(nc4nc(-c5cccs5)nn24)CCCC3)cc1F`, the inhibition was -3.99%.
`Cc1oc(-c2ccc(Cl)cc2)nc1CS(=O)CC(=O)NCCc1ccccc1` (stereo unspecified) gave an inhibition of -24.3%.
`Cc1cccc(NC(=O)Cn2nnc(C(=O)NCc3cccs3)c2N)c1` gave an inhibition of 7.53%.
Work on `NC(=O)c1c(NC(=O)c2cc(-c3ccc(F)cc3)on2)sc2c1CCCC2` yielded an inhibition of 16.8%.
`CCC(C(=O)Nc1ccc(C(C)C)cc1)n1nc(C)n2c(cc3cc(C)ccc32)c1=O` (stereo unspecified) was tested, and the inhibition was 0.929%.
`CN(C)c1ccc(CNC(=O)C2CCCN(S(=O)(=O)c3ccc4c(c3)CCCC(=O)N4)C2)cc1` (stereo unspecified) showed an inhibition of 5.06%.
For `Cc1ccc(C)c(Cn2c(=O)cc(C(F)(F)F)c3c(C)nn(C)c32)c1`, the inhibition was -9.6%.
Work on `Cc1ccccc1C(=O)NCc1nc(-c2ccc(Cl)cc2)no1` yielded an inhibition of -1.91%.
For `CCCCN(CC(=O)NC(C)(C)C)C(=O)C(=O)Nc1ccc2c(c1)OCCO2`, the inhibition was active: 64.1%.
For `Cc1cc(C(=O)N2CCc3ccccc32)n(-c2ccccc2)n1`, the inhibition was active: 37.1%.
`FC(F)(F)c1nnc2ccc(NCc3ccccc3)nn12` was tested, and the inhibition was active: 79.7%.
For `CCc1nnc(SCc2nc(-c3cccc(Cl)c3)oc2C)c2cc3sc(C)cc3n12`, the inhibition was 12.2%.
Compound `COc1cc(OC)c(NS(=O)(=O)c2cc3c(cc2C)N(C(C)=O)CCO3)cc1Cl` has an inhibition of -0.0108%.
`COc1ccccc1NC(=O)CN(c1cc(C)cc(C)c1)S(=O)(=O)c1c(C)[nH]c(=O)[nH]c1=O` gave an inhibition of -20%.
In the case of `c1ccc(Cn2cc(CNc3ccccc3)nn2)cc1`, the inhibition is reported as active: 41.8%.
`CCOC(=O)c1ccc(NC2(c3ccccc3)C(=O)c3ccccc3C2=O)cc1` was tested, and the inhibition was -2.94%.
In the case of `Cc1ccc(-c2nnc3ccccc3c2C(=O)Nc2ccc(C)c(F)c2)cc1`, the inhibition is reported as -0.762%.
`COc1ccccc1C(=O)Nc1nnc(S(=O)(=O)N2CCN(c3ccc(F)cc3)CC2)s1` showed an inhibition of 18.6%.
`CCOC(=O)c1ccc(NC(=O)c2sc3ccccc3c2Cl)cc1` showed an inhibition of -7.24%.
`CCn1cc(CN2CCC(C(=O)Nc3ccc(Oc4cccnc4)cc3)CC2)cn1` was tested, and the inhibition was active: 30.9%.
Compound `Cc1ccc(NC(=O)c2c(C)nc3sc(C(=O)Nc4ccc(F)cc4)c(N)c3c2-c2ccc(Cl)cc2)c(C)c1` has an inhibition of 7.11%.
`COc1cccc(NC(=O)CCc2nnc3n(Cc4ccccc4Cl)c(=O)c4ccccc4n23)c1` gave an inhibition of 11.8%.
`O=C1CC(c2nnc(Cc3c(F)cccc3Cl)o2)CN1c1ccccc1` (stereo unspecified) showed an inhibition of 1.43%.
Work on `Cc1ccc(Nc2c(-c3ccc(N4CCOCC4)cc3)nc3cccc(C)n23)cc1` yielded an inhibition of -2.93%.
For `O=C(NC(=S)NCc1ccccc1)c1ccccc1`, the inhibition was active: 35.8%.
`CCc1ccc(NC(=O)C2CCCN(S(=O)(=O)c3cccc4nsnc34)C2)cc1` (stereo unspecified) gave an inhibition of -6.73%.
`COc1ccc(Nc2nnc(-c3ccc(C)c(S(=O)(=O)NCc4nc5ccccc5[nH]4)c3)c3ccccc23)cc1` gave an inhibition of 8.1%.
`CCC(C)Sc1oc(-c2ccco2)nc1S(=O)(=O)c1ccc(Cl)cc1` (stereo unspecified) showed an inhibition of 8.64%.
With `Cc1ccc(NC(=O)Cn2nnc(C(=O)NCCc3ccccc3)c2N)cc1` the inhibition was -5.71%.
For `O=C(NCc1ccc(Cl)cc1)c1ccc2c(c1)NC(=O)C(CS(=O)(=O)Cc1ccc(F)cc1Cl)N2` (stereo unspecified), the inhibition was 8.61%.
Work on `Clc1ccc(-c2csc(-c3nc(-c4ccc(Br)s4)cs3)n2)cc1` yielded an inhibition of -25.3%.
`Cc1cc(C)c(Cn2c3ccccc3c3cnn(CC(=O)NCCC4=CCCCC4)c(=O)c32)c(C)c1` gave an inhibition of -12.7%.
With `CCOc1ccccc1C(=O)NC1(C(F)(F)F)C(=O)Nc2c1c(=O)[nH]c(=O)n2-c1ccccc1` (stereo unspecified) the inhibition was 3.86%.
With `CCCNC(=O)CSC1=N/C(=C/c2ccc(F)cc2)C(=O)N1CC` the inhibition was active: 35%.
For `Cc1ccc(S(=O)(=O)c2cn(Cc3ccccc3)c3cc(N4CCCC4)c(F)cc3c2=O)cc1`, the inhibition was 14.8%.
`Cc1ccc(-c2nc(NC(=O)CSc3ccc4ccccc4n3)ns2)cc1` was tested, and the inhibition was -11.4%.
Compound `Cc1ccccc1NC(=O)c1nc(S(C)(=O)=O)ncc1N(Cc1ccco1)Cc1sccc1C` has an inhibition of 9.66%.
`Cc1ccccc1OCC(=O)Nc1ccc(C(=O)OCc2cc(=O)n3ccsc3n2)cc1` was tested, and the inhibition was -4.27%.
`CCN(C(=O)CCc1nc(-c2ccc(C)cc2)no1)c1cccc(Cl)c1` was tested, and the inhibition was 6.77%.
Compound `COC(=O)c1cc2sccc2n1CC(=O)Nc1ccc(C)cc1C` has an inhibition of -2.32%.
With `Cc1ccc(C(C)C)c(OCc2nn(CC(=O)c3ccc(Cl)cc3)c3[n+]2CCCCC3)c1` the inhibition was active: 33%.
For `CC1Cc2cc(S(=O)(=O)NCc3ccccc3)ccc2N1C(=O)C1CCC1` (stereo unspecified), the inhibition was 16.3%.
`COc1ccc(NC(=O)N2CCN(S(C)(=O)=O)CC2)cc1` was tested, and the inhibition was active: 34.1%.
For `O=C(NCc1ccccc1)c1nc(-c2ccc(Cl)cc2)n2c1CCCCC2`, the inhibition was -9.26%.
In the case of `CC[C@H](C)C(=O)O[C@H]1CCC=C2C=C[C@H](C)[C@H](CC[C@@H]3C[C@@H](O)CC(=O)O3)[C@H]21`, the inhibition is reported as active: 38.1%.
`CCOC(=O)c1cc(OC(=O)c2cc(OC)cc(OC)c2)n(-c2ccccc2)n1` showed an inhibition of 20.3%.
For `Clc1ccc2nc(-c3cccs3)c(Nc3ccc4c(c3)OCCO4)n2c1`, the inhibition was 9.34%.
`CCOC(=O)c1c(NC(=O)CSc2cn(CCNC(=O)c3ccc(OCC)cc3)c3ccccc23)sc2c1CCC2` showed an inhibition of -8.35%.
In the case of `Cc1ccc(Cl)cc1NC(=O)Cn1c(SCC(=O)NCc2ccccc2)nc2ccccc21`, the inhibition is reported as -6.12%.
`CCc1nonc1NC(=O)c1oc2ccc(Cl)cc2c1C` gave an inhibition of -2.59%.
In the case of `COC(=O)c1cc2oc3ccccc3c2n1CC(=O)Nc1ccc(F)c(Cl)c1`, the inhibition is reported as 16.4%.
`COc1cccc(CC(=O)Nc2ccc3nc(Nc4cccc(C(F)(F)F)c4)cc(C)c3c2)c1` was tested, and the inhibition was -14.9%.
Note: 0% is about no effect.
